Source: PubChem BioAssay (NCATS)
Inconclusive results, whose numbers are uncertain, are shown with a selection of clear calls. Potencies of inconclusive entries are left out as doubtful fits. Active and inactive are the calls of the source. The call rests on the fitted dose curve; in most records, active means well fitted inhibition curve with a large enough effect; inconclusive means small, poorly fitted or top-dose-only effect; inactive means no such curve, though single readings can be large or run the other way.

Test: BET inhibitor-based combinations targeting novel dependencies in MECOM-rearranged (r) AML: MV-4-11 cell line (AID 2202233); further: nearly all actives have a fitted effect of over 45% in size
Conditions: MV-4-11 AML viability, CellTiter-Glo luminescence, 48 h; viability, % of control: at 46 µM (top of the series) unless noted
From the text: Ecotropic viral insertion site 1 (EVI1) is located on chromosome 3q26.2 as part of the MECOM (MDS and EVI1 complex) locus. Under normal hematopoiesis, EVI1 is a regulator of hematopoietic stem cell maintenance and self-renewal and EVI1 levels decrease as the cells differentiate. In approximately 5-10% of de novo acute myeloid leukemia (AML) EVI1 is aberrantly expressed, including Chromosomal inv(3)(q21;q26.2) or t(3;3)(q21;q26.2) alterations (MECOM-r) that account for about 50% of AML with EVI1 overexpression 31. AMLs with high levels of EVI1 have a poor prognosis and an overall survival time averaging between 10-14 months. EVI1 overexpression confers resistance in leukemia cells, highlighting the need to develop new targeted therapies for EVI1 overexpressing AMLs. Here, we performed an unbiased chemical drug screening by evaluating the single agent activity of a collection of 2,480 oncology-focused, approved and investigational drugs (NCATS Mechanism Interrogation Plates, MIPE v5.0) against a panel of seven AML cell lines. These included four MECOM-r cell-lines (AML-191, AML-194, UCSD-AML1 and HNT-34) and three non-MECOM-r AMLs (MV4-11, OCI-AML3 and SET-2). Exploiting the mechanistic redundancy built in the library, we identified target-level sensitivities in MECOM-r AML cells and relative activity as compared to other AML subtypes.
A collection of 2480 mechanistically annotated dugs (MIPE v5.0) was used to screen four 3q26.2 rearranged AML cell lines and three non-3q26.2 rearranged AML cell lines. This library purposely exploits redundancy by including multiple inhibitors of key onco-targets, while simultaneously encompassing mechanistic diversity, targeting more than 800 distinct mechanisms of action. Briefly, cells were seeded in 5 uL of growth media using a Multidrop Combi dispenser into 1536 well white polystyrene tissue culture treated plates (Corning) at a density of 500cells/well. For each cell-line, for each of the 2480 drugs in MIPE v5.0 library, an 11-point dose curve was generated via a 1536 pin-tool. Plates were incubated for 48 hr at standard incubator conditions, covered by a stainless steel gasketed lid to prevent evaporation. Cell viability was determined by luminescence based, Cell Titer Glo assay (Promega). In detail, 3 uL of Cell Titer Glo were added to each well and plates were incubated at room temperature for 15 min with a stainless-steel lid in place. Luminescence readings were taken using a Viewlux (PerkinElmer) with a 2 s exposure time per plate. Compound dose-response curves were normalized to DMSO and empty well controls on each plate. Quantitative drug activity data from dose-response curves was determined utilizing area Under the Curve (AUC) and Z-transformed AUC (Z-AUC, a mean-centering transformation applied to each individual cell-line screened).
Potency means the concentration at half of the fitted maximal effect; tags describe the fitted curve by direction and shape.

Row | SMILES | Potency | viability, % of control
1 | c1ccc(CNc2nc(NCc3ccccc3)c3ccccc3n2)cc1 | active: 9.34 µM | 
2 | CC(=O)C1CCC2C3CCC4=CC(=O)CCC4(C)C3CCC12C (stereo not given) | inconclusive [inhibitor, partial curve] | 
3 | CO[C@H]1C[C@@H]2CC[C@@H](C)[C@@](O)(O2)C(=O)C(=O)N2CCCC[C@H]2C(=O)O[C@H]([C@H](C)C[C@@H]2CC[C@@H](OP(C)(C)=O)[C@H](OC)C2)CC(=O)[C@H](C)/C=C(\C)[C@@H](O)[C@@H](OC)C(=O)[C@H](C)C[C@H](C)/C=C/C=C/C=C/1C | active: 14.8 µM | 
4 | CCCS(=O)(=O)Nc1ccc(F)c(C(=O)c2c[nH]c3ncc(Cl)cc23)c1F | inconclusive [inhibitor, partial curve] | 
5 | COc1ccccc1C(=O)Nc1cc2c(cc1N1CCCCC1)n(C)c(=O)n2C | inconclusive [inhibitor, partial curve] | 
6 | CCOc1ccc(Cc2cc([C@@H]3O[C@H](CO)[C@@H](O)[C@H](O)[C@H]3O)ccc2Cl)cc1 | inconclusive [inhibitor, partial curve, poor fit] | 
7 | Cc1cccc(-c2[nH]ncc2-c2ccc(F)c(-c3cnn(CCO)c3)c2)n1 | inconclusive [inhibitor, single point] | 
8 | CNc1nc(Nc2ccc(C(=O)N3CCOCC3)cc2OC)ncc1Cl | inconclusive [inhibitor, partial curve] | 
9 | N=C(N)c1ccc2cc(OC(=O)c3ccc(N=C(N)N)cc3)ccc2c1 | inconclusive [inhibitor, single point] | 
10 | COc1cc(OC)c(NC(=O)Nc2cc(C)on2)cc1Cl | inconclusive [inhibitor, full curve, poor fit] | 
11 | COc1ccc2[nH]c(C(=O)N3CCC(CC(C)(C)O)CC3)cc2c1 |  | inactive: 101%
12 | Cc1nc(C(=O)NCC(=O)O)c(O)c2ccc(Oc3ccccc3)cc12 | inconclusive [inhibitor, full curve, poor fit] | 
13 | CCNCCS(=O)(=O)NC[C@@]1(c2ccccc2)SC(NC(=O)C(C)(C)C)=NN1C(=O)C(C)(C)C | active: 0.0042 µM | 
14 | COC(=O)N(CC(=O)O)Cc1cccc(OCc2nc(-c3ccc(Cl)cc3)oc2C)c1 | inconclusive [inhibitor, partial curve, poor fit] | 
15 | CCCCC(CC)COC(=O)C(C#N)=C(c1ccccc1)c1ccccc1 (stereo not given) |  | inactive: 104%
16 | Cc1nc(-c2cn3c(n2)-c2ccc(-c4cnn(C(C)(C)C(N)=O)c4)cc2OCC3)n(C(C)C)n1 | active: 5.25 µM | 
17 | CCCCCCCN(CC)CCCC(O)c1ccc(NS(C)(=O)=O)cc1 (stereo not given) | inconclusive [inhibitor, partial curve, poor fit] | 
18 | NC1CCC(N[C@@H]2C[C@H]2c2ccccc2)CC1 (stereo not given in full) | inconclusive [inhibitor, partial curve, poor fit] | 
19 | CCCCOCCOc1nc(-c2ccc(C(=O)O)c(F)c2)sc1C | inconclusive [inhibitor, full curve] | 
20 | Nc1ccn([C@@H]2CS[C@H](CO)O2)c(=O)n1 |  | inactive: 118%

Row | SMILES | Potency | viability, % of control
21 | CC(=O)Nc1cccc(-n2c(=O)n(C3CC3)c(=O)c3c(Nc4ccc(I)cc4F)n(C)c(=O)c(C)c32)c1 | inconclusive [inhibitor, full curve] | 
22 | CCS(=O)(=O)Nc1ccc(Oc2ccc(F)cc2F)c(-c2cn(C)c(=O)c3[nH]ccc23)c1 | active: 0.0083 µM | 
23 | O=C(Nc1cnn2ccc(N3CCC[C@@H]3c3cc(F)ccc3F)nc12)N1CC[C@H](O)C1 | inconclusive [inhibitor, partial curve, poor fit] | 
24 | CN(CCOc1ccc(-c2ccc3c(c2)OCO3)cc1C(C)(C)C)CC(=O)O | inconclusive [inhibitor, partial curve, poor fit] | 
25 | COCCOc1ccc(N2CCN(CCn3ncc4c3nc(N)n3nc(-c5ccco5)nc43)CC2)cc1 | inconclusive [inhibitor, partial curve, poor fit] | 
26 | C=CC(=O)N1CC(N2CCN(C(=O)CNc3cc(C4(C)CC4)c(Cl)cc3O)CC2)C1 | inconclusive [inhibitor, full curve, poor fit] | 
27 | CN(C)CCOc1cc(-c2cn[nH]c2)ccc1NC(=O)C1COc2ccccc2O1 (stereo not given) | inconclusive [inhibitor, partial curve, poor fit] | 
28 | CN(C)c1ccc(C2Nc3ccc4ccccc4c3C3=C2C(=O)CC(C)(C)C3)cc1Br (stereo not given) | inconclusive [inhibitor, single point] | 
29 | CC(=O)[C@H]1CC[C@H]2[C@@H]3CC=C4C[C@@H](O)CC[C@]4(C)[C@H]3CC[C@]12C |  | inactive: 120%
30 | O=C(/C=C/C=C/c1ccc2c(c1)OCO2)N1CCCCC1 | inconclusive [inhibitor, single point] | 
31 | Cc1csc(-c2nnc(Nc3ccc(Oc4ncccc4-c4ccnc(N)n4)cc3)c3ccccc23)c1 | inconclusive [inhibitor, full curve] | 
32 | OCCCNc1cc(-c2ccnc(Nc3cccc(Cl)c3)n2)ccn1 | active: 0.132 µM | 
33 | COc1ccc(COc2cc3oc(=O)c4cc(C(C)O)ccc4c3cc2OC)cc1 (stereo not given) | inconclusive [inhibitor, single point] | 
34 | COc1ccc(CCN2CCN(CCCc3ccccc3)CC2)cc1OC | inconclusive [inhibitor, partial curve, poor fit] | 
35 | CCOC(=O)[C@@]1(CCCCCCOc2ccc(Cl)cc2)CO1 | inconclusive [inhibitor, single point] | 
36 | O=S(=O)(c1cccc2cnccc12)N1CCCNCC1 | inconclusive [inhibitor, partial curve] | 
37 | Cc1cc(C)c2c(c1)[C@@H](N(Cc1cc(C(F)(F)F)cc(C(F)(F)F)c1)c1nnn(C)n1)CCCN2CC1CCC(C(=O)O)CC1 (stereo not given in full) | inconclusive [inhibitor, partial curve, poor fit] | 
38 | O=c1oc2cc(O)ccc2s1 |  | inactive: 108%
39 | COc1cccc2c1c(O)c(C(=O)N(C)c1ccc(C(F)(F)F)cc1)c(=O)n2C |  | inactive: 82%
40 | COc1ccc(-c2oc3c(CC=C(C)C)c(O)cc(O)c3c(=O)c2O)cc1 | inconclusive [inhibitor, partial curve, poor fit] | 
